Experimental data taken from US20250145705A1 (SHANDONG SIMCERE BIOPHARMACEUTICAL, published 2025).

T1: human GPRC5A (human, UniProt Q8NFJ5 1-357)
T1 construct: Printed as Uniprot: Q8NFJ5-1; also called hGPRC5A; on CHOK1-hGPRC5A cells
T1 sequence: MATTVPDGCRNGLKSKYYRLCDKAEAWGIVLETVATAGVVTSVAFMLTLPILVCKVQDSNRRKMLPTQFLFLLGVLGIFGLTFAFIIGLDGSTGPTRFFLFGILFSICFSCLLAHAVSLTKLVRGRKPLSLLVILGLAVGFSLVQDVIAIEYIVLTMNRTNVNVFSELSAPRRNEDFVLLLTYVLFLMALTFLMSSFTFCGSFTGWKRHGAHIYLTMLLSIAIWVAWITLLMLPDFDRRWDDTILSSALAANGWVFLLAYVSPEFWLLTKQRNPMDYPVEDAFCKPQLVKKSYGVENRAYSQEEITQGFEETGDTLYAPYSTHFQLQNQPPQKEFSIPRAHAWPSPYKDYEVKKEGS

T2: human GPRC5C (human, UniProt Q9NQ84 24-441)
T2 construct: also called hGPRC5C; on CHOK1-hGPRC5C cells
T2 sequence: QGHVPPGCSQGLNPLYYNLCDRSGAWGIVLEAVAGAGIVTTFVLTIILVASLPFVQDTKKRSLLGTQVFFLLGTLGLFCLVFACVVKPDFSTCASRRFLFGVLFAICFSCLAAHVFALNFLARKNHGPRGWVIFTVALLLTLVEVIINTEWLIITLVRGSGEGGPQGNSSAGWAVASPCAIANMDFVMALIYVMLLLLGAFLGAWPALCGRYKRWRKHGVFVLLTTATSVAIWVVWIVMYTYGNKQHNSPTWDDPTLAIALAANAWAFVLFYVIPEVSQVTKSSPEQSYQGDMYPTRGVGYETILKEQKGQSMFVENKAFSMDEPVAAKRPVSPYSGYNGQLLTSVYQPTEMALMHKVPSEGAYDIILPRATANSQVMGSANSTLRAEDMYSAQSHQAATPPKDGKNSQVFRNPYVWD

T3: human GPRC5B (human, UniProt Q9NZH0 29-403)
T3 construct: Printed as Uniprot: Q9NZH0-1; also called hGPRC5B; on CHOK1-hGPRC5B cells
T3 sequence: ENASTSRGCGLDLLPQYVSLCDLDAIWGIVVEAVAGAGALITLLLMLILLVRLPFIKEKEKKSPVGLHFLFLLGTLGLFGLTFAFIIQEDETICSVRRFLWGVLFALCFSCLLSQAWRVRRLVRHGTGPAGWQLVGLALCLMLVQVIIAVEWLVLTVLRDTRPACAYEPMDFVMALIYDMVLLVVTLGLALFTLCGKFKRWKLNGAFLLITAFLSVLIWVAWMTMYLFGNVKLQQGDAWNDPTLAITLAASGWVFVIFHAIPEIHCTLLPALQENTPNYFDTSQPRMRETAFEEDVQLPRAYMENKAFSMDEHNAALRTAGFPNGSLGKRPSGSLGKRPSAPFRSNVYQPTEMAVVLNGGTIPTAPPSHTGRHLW


Tests used:
hGPRC5D-LVP protein [1] = target: T4, hGPRC5D-LVP protein (human, UniProt Q9NZD1 1-345, limits assumed); test: competitive ELISA, competitor Biotin-5F11; antibody at 16.67 nM
hGPRC5D-LVP protein [2] = target: T4, hGPRC5D-LVP protein; test: competitive ELISA, competitor Biotin-5F11; antibody at 1.85 nM
T4 sequence (Q9NZD1 whole entry): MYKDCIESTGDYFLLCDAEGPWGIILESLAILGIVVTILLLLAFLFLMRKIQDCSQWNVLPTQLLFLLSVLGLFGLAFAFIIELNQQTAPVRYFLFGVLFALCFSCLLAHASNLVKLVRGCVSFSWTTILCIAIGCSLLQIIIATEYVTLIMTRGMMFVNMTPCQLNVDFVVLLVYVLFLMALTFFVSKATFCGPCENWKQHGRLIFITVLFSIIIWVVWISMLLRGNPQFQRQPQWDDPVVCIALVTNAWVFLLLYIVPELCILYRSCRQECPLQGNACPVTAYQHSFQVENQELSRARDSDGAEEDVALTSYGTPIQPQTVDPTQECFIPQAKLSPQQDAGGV

hGPRC5D-LVP protein [3] = target: T4, hGPRC5D-LVP protein; test: competitive ELISA, competitor Biotin-5F11; antibody at 50.00 nM
hGPRC5D-LVP protein [4] = target: T4, hGPRC5D-LVP protein; test: competitive ELISA, competitor Biotin-5F11; antibody at 5.56 nM
human GPRC5A [5] = target: T1, human GPRC5A; test: FACS, CHOK1-hGPRC5A cells
Procedure: (§1) The desired cells were scale-up cultured in a T-75 cell culture flask to the logarithmic growth phase. NCI-H929, MolP-8 and RPMI-8226 cells were collected and washed with PBS buffer 2 times. After counting the cells, the cell pellet was resuspended with [PBS+2% (w/v) BSA] blocking solution to 2×10⁶ cells/ml, and added to a 96-well FACS reaction plate at 50 μl/well, and then the chimeric antibody test sample was added at 50 μl/well, and incubated on ice for 1 h. […] The obtained mixture was centrifuged and washed 3 times with a PBS buffer, and FACS (FACS CantoII, purchased from BD Company) was used for detection and result analysis. Data analysis was performed by software (Flowjo) to obtain the mean fluorescence intensity (MFI) of the cells. Then a software (GraphPad Prism8) was used for analysis, the analysis results are shown in Table 9 and FIGS. 9A-9C, 10A-10C and 11A-11C.

human GPRC5C [6] = target: T2, human GPRC5C; test: FACS, CHOK1-hGPRC5C cells
human GPRC5A [7] = target: T1, human GPRC5A; test: FACS, CHOK1-hGPRC5A cells; remark: listed apart in the source
hGPRC5D-LVP protein [8] = target: T4, hGPRC5D-LVP protein; test: competitive ELISA, competitor Biotin-5F11; antibody at 0.62 nM
human GPRC5D [9] = target: T5, human GPRC5D (human, UniProt Q9NZD1 1-345); test: FACS, RPMI-8226 cells
T5 construct: the cell line is named under assay; also called hGPRC5D; G protein coupled receptor C5 family subtype D
Procedure: as §1

human GPRC5B [10] = target: T3, human GPRC5B; test: FACS, CHOK1-hGPRC5B cells
Procedure: as §1

hGPRC5D-LVP protein [11] = target: T4, hGPRC5D-LVP protein; test: competitive ELISA, competitor Biotin-5F11; antibody at 0.07 nM
human GPRC5C [12] = target: T2, human GPRC5C; test: FACS, CHOK1-hGPRC5C cells; remark: listed apart in the source
Procedure: as §1

human GPRC5B [13] = target: T3, human GPRC5B; test: FACS, CHOK1-hGPRC5B cells; remark: listed apart in the source
human GPRC5D [14] = target: T5, human GPRC5D; test: FACS, MolP-8 cells
T5 sequence (Q9NZD1 whole entry): as above
Procedure: as §1

hGPRC5D-LVP protein [15] = target: T4, hGPRC5D-LVP protein; test: competitive ELISA, competitor Biotin-5F11; antibody at 0 nM
hGPRC5D-LVP protein [16] = target: T4, hGPRC5D-LVP protein; test: competitive ELISA, competitor Biotin-5F11; antibody at 0.21 nM
human GPRC5D [17] = target: T5, human GPRC5D; test: FACS, NCI-H929 cells
Procedure: as §1

Row | Binder | OD450 (hGPRC5D-LVP protein [1]) | OD450 (hGPRC5D-LVP protein [2]) | OD450 (hGPRC5D-LVP protein [3]) | OD450 (hGPRC5D-LVP protein [4]) | Maximum mean fluorescence intensity (human GPRC5A [5]) | binding result (human GPRC5C [6]) | binding result (human GPRC5A [7]) | OD450 (hGPRC5D-LVP protein [8]) | EC50 (human GPRC5D [9]) [nM] | Maximum mean fluorescence intensity (human GPRC5D [9]) | Maximum mean fluorescence intensity (human GPRC5B [10]) | OD450 (hGPRC5D-LVP protein [11]) | Maximum mean fluorescence intensity (human GPRC5C [12]) | binding result (human GPRC5B [13]) | EC50 (human GPRC5D [14]) [nM] | Maximum mean fluorescence intensity (human GPRC5D [14]) | OD450 (hGPRC5D-LVP protein [15]) | OD450 (hGPRC5D-LVP protein [16]) | EC50 (human GPRC5D [17]) [nM] | Maximum mean fluorescence intensity (human GPRC5D [17])
1 | GPRC5D-Mab05scFv-Fc (scFv, Human-mouse chimeric scFv-Fc; also called GPRC5D-mab05 chimeric antibody) scFv: QVQLQQSGAELARPGASVMLSCKASGYTFTSYGISWVKQRTGQGLEWIGEIYPRSGNTYYNEKFKGKATLTADKSSSTAYMELRSLTSEDSAVYFCARGRAYGRNYPMDYWGQGTSVTVSSGGGGSGGGGSGGGGSDILLTQSPAILSVSVGERVSFSCRASQSIGTSIHWYQQRTNGSPRLLIKYASESISGIPSRFSGSGSGTDFTLSINSVESEDIADYYCQQSNSWPYTFGGGTKLEIK[human IgG1 Fc with C220S (EU numbers) not shown] | 0.31 | 0.55 | 0.22 | 0.41 | 97 | no binding | no binding | 0.78 | 17.2 | 1140 | 106 | 1.13 | 108 | no binding | 7.78 | 5130 | 1.3 | 1 | 1.82 | 6450
2 | GPRC5D-Mab08scFv-Fc (scFv, Human-mouse chimeric scFv-Fc; also called GPRC5D-mab08 chimeric antibody) scFv: QVQLQQSGAELARPGASVKLSCKTSGYIFTNFGITWVKQRTGQGLEWIGENYPRRINTYYNEKFKGKATLTADKSSNTAYLELRSLTSEDSAVYFCSRKDIFGLSYALDYWGQGTSVTVSSGGGGSGGGGSGGGGSDIVMTQSQKFMSTSVGDRVSVTCKASQNVGTNVAWYQHKPGQSPKALIYSASYQYSGVPDRFTGSGSGTDFTLTISNVQSEDLAEYICQQYKNYPYTFGGGTKLEIK[human IgG1 Fc with C220S (EU numbers) not shown] | 0.1 | 0.45 | 0.06 | 0.18 | 72 | no binding | no binding | 0.51 | 8.51 | 481 | 47 | 0.61 | 47 | no binding | 17.2 | 4210 | 0.91 | 0.64 | 10.2 | 5990
3 | GPRC5D-Mab04scFv-Fc (scFv, Human-mouse chimeric scFv-Fc; also called GPRC5D-mab04 chimeric antibody) scFv: EVQLVESGGGLVKPGGSLKLSCAASRFTFSRYAMSWVRQTPEKRLEWVATISDGGSYTYYPDNVKGRFTISRDNAKNNLYLQMSHLKSEDTAIYYCARDRYYYGKGGYFDVWGTGTTVTVSSGGGGSGGGGSGGGGSDIQMTQSPASLSVSVGETVTITCRASENIYRNLAWYQQKQGKSPQLLVYAATNLADGVPSRFSGSGSGTQYSLKINSLQSEDFGSYYCQHFWGTPRTFGGGTKLEIK[human IgG1 Fc with C220S (EU numbers) not shown] | 0.31 | 0.61 | 0.25 | 0.4 | 80 | no binding | no binding | 0.76 | 13.9 | 561 | 85 | 1.1 | 77 | no binding | 9.06 | 3300 | 1.25 | 0.96 | 0.72 | 3690
4 | GPRC5D-Mab03scFv-Fc (scFv, Human-mouse chimeric scFv-Fc; also called GPRC5D-mab03 chimeric antibody) scFv: QAYLQQSGAELVRPGASVKMSCKASGYTFTSYNMNWVKQTPRQGLEWIGAIYPGNGDTSYNQKFKGKATLTVDKSSSTAYMQLSSLTSEDSAVYFCARVRLRYAMDYWGQGTSVTVSSGGGGSGGGGSGGGGSDIVMTQSQKFMSTTVGDRVTITCKASQNVGTAVAWYQQKPGQSPKLLISSASNRYTGVPERFTGSGSGTDFTLTIRNMQSEDLADYFCQQYSSYPWTFGGGTELEIK[human IgG1 Fc with C220S (EU numbers) not shown] | 0.2 | 0.42 | 0.14 | 0.27 | 74 | no binding | no binding | 0.55 | 3.98 | 584 | 78 | 1.02 | 74 | no binding | 2.65 | 4090 | 1.12 | 0.84 | 1.09 | 4580
5 | GPRC5D-Mab01scFv-Fc (scFv, Human-mouse chimeric scFv-Fc; also called GPRC5D-mab01 chimeric antibody) scFv: QVQLKESGPGLVAPSQSLSITCTVSGFSLTNYGVSWVRQPPGKGLEWLGVIWGDGSTNYHSALISRLSIRKDNSKSQVFLKLNSLQTDDTATYYCAKPASYYGRRTYAMDFWGHGTSVTVSSGGGGSGGGGSGGGGSQIVLSQSPAILSASPGEKVTMTCRASSSVSYMHWYQQKPGSSPKPWIYATSHLASGVPARFSGSGSGTSYSLTISRVEAEDAATYYCQQWSSNPPMTFGGGTKLEIK[human IgG1 Fc with C220S (EU numbers) not shown] | 0.48 | 0.81 | 0.4 | 0.62 | 95 | no binding | no binding | 0.93 | 6.74 | 552 | 81 | 1.2 | 80 | no binding | 8.2 | 4130 | 1.33 | 1.16 | 2.2 | 6500
